The target of experiment [1] is T1, LexA-R6 RARA (V103A-F105A) (human) (UniProt O95685).
T1 sequence: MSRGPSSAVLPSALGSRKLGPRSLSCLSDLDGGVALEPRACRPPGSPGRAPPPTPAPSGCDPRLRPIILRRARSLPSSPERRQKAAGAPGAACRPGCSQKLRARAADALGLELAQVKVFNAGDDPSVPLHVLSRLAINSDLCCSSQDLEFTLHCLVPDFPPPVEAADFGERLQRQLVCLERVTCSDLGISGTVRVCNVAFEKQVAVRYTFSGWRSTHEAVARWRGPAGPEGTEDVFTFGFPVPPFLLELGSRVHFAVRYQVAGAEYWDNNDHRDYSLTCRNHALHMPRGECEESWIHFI
Put plainly: two-hybrid; yeast THY-AP4 co-transformed with pBTM-R6 (LexA-R6 wild type or mutants) and pACT2 fusions (GAD-PP1α, GAD-laforin, GAD-14-3-3ε); β-galactosidase activity in permeabilized cells, Miller units.

Chains of the proteins cited; added tags and fusions are not shown.
UniProt P62136: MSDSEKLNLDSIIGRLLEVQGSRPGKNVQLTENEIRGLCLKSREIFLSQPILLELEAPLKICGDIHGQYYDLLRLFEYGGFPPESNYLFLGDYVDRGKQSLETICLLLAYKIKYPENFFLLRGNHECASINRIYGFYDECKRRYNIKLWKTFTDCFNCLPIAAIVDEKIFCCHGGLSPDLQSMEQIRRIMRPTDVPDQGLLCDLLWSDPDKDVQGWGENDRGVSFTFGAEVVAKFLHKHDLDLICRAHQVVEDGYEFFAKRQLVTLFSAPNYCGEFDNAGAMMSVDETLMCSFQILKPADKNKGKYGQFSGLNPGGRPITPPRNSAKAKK
UniProt P62258: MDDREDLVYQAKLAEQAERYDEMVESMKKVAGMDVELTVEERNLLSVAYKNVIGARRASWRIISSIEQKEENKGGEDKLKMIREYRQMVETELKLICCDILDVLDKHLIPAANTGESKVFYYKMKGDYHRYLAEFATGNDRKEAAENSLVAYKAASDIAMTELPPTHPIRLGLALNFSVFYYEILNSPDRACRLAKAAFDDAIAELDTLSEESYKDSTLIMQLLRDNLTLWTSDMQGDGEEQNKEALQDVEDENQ

For experiment [2], the target named is T2, LexA-R6 S25A (human) (UniProt O95685).
T2 sequence: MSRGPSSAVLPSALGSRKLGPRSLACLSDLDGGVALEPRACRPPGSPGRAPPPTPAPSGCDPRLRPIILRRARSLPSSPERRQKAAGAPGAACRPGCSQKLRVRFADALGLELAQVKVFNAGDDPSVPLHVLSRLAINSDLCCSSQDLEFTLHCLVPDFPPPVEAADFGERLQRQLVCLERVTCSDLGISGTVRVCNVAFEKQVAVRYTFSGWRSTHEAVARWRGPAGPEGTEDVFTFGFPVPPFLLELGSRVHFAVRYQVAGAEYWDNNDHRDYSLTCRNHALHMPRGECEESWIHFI
The experiment is described as above.

Experiment [3] addresses T3, LexA-R6 S74A (human) (UniProt O95685).
T3 sequence: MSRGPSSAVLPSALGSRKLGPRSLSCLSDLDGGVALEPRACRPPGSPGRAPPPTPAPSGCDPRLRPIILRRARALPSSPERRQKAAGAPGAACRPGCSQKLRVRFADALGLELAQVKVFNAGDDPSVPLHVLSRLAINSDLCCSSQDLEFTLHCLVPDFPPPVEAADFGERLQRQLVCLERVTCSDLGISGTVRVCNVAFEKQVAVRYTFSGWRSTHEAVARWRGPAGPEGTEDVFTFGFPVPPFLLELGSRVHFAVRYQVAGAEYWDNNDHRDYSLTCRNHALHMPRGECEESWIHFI
The experiment is described as above.

Experiment [4] has as its target T4, LexA-R6 WDNAD (N270A) (human) (UniProt O95685).
T4 sequence: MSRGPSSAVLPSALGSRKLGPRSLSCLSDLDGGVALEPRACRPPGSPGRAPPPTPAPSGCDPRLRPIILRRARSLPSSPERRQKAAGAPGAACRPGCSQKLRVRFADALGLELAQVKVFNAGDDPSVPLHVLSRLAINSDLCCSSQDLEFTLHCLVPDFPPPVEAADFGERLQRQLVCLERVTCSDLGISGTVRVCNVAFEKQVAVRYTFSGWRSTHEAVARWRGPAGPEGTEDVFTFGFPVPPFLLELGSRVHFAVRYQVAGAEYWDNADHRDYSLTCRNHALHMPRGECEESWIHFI
The description is as above.

The target of experiment [5] is T5, LexA-R6 wild type (PPP1R3D) (human) (UniProt O95685).
T5 sequence: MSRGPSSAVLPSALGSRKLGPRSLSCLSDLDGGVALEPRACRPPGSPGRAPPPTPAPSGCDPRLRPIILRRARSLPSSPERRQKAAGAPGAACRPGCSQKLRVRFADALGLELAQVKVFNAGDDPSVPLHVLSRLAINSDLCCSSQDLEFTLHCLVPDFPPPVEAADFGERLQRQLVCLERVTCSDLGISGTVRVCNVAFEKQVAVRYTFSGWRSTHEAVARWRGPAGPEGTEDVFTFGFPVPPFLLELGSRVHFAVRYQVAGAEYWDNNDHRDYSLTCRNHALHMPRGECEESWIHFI
Described as above.

Experiment [6] deals with T6, YFP-R6 RAHA (V253A-F255A) (human) (UniProt O95685).
T6 sequence: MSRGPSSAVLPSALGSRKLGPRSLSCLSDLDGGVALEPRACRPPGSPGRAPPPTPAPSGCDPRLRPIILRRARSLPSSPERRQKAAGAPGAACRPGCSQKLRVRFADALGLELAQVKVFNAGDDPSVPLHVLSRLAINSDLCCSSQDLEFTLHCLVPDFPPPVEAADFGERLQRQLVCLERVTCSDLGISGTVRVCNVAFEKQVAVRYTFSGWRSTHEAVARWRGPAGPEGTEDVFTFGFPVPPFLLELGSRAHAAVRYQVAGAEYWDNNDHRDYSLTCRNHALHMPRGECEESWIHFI
The experiment in a line: co-IP; GFP-Trap: lysates of Hek293 cells transfected with YFP-R6 forms, 2 mg of supernatant with GFP-Trap_A beads 10 min at 4°C (25 mM Tris-HCl pH 7.5, 150 mM NaCl, 0.5% NP-40); endogenous partners found by Western blotting. For orientation: In western blotting, separated proteins are transferred to a membrane and probed.

For experiment [7], the target named is T7, YFP-R6 RARA (V103A-F105A) (human) (UniProt O95685).
T7 sequence: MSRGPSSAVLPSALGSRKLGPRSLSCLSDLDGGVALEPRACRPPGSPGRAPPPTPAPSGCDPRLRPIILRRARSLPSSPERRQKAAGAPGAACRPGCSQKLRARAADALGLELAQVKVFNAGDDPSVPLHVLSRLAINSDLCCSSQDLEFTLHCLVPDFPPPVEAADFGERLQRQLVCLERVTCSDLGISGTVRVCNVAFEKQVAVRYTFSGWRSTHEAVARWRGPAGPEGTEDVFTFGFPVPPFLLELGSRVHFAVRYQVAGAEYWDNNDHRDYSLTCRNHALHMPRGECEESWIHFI
The description is as above.

The target of experiment [8] is T8, YFP-R6 S25A (human) (UniProt O95685).
T8 sequence: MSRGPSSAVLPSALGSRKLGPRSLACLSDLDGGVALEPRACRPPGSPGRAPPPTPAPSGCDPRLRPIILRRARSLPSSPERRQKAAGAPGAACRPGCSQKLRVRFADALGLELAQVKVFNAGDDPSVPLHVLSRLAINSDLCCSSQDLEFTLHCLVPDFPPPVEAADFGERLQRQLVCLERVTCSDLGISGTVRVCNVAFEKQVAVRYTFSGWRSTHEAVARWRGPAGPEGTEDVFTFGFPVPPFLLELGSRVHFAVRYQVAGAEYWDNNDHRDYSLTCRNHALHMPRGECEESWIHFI
Described as above.

The target of experiment [9] is T9, YFP-R6 S74A (human) (UniProt O95685).
T9 sequence: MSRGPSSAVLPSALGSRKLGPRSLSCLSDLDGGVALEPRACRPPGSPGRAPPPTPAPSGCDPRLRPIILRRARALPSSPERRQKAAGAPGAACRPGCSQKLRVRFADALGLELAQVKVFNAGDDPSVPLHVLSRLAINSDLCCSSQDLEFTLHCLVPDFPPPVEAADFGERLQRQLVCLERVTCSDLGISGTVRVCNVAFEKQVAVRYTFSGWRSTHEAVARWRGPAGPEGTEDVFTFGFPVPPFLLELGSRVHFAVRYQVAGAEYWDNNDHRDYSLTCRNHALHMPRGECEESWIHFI
The description is as above.

Experiment [10] deals with T10, YFP-R6 WDNAD (N270A) (human) (UniProt O95685).
T10 sequence: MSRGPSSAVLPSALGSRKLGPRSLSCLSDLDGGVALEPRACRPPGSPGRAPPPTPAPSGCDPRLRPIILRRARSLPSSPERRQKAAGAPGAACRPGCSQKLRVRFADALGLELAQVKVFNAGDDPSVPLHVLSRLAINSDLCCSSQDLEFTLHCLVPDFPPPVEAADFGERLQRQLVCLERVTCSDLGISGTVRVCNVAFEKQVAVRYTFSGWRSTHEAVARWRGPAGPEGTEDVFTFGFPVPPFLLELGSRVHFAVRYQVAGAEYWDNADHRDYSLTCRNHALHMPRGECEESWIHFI
The experiment is described as above.

Experiment [11] addresses T11, YFP-R6 wild type (PPP1R3D) (human) (UniProt O95685).
T11 sequence: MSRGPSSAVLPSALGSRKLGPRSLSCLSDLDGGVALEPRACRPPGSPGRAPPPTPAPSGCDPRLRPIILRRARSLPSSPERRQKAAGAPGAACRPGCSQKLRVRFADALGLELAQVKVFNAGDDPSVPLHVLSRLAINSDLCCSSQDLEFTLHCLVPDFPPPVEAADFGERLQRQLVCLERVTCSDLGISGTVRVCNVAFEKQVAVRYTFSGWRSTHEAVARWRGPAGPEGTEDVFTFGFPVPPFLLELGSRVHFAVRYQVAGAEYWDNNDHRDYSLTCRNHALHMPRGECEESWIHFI
Described as above.

Experiment [12] deals with T12, LexA-R6 WANNA (D268A-D271A) (human) (UniProt O95685).
T12 sequence: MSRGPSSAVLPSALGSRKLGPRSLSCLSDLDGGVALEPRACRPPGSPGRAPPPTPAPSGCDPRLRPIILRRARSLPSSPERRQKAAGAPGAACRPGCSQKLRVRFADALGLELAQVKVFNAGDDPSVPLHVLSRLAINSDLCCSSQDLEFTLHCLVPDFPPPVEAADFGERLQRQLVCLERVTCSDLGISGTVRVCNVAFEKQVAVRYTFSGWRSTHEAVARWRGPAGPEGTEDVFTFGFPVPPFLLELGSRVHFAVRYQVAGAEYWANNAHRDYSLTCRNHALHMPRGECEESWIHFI
The experiment in a line: two-hybrid; yeast THY-AP4 co-transformed with pBTM-R6 (LexA-R6 wild type or mutants) and pACT2 fusions (GAD-PP1α, GAD-laforin, GAD-14-3-3ε); β-galactosidase activity in permeabilized cells, Miller units.

These are yes or no findings as the source states them, for the method shown. For some of these results: Binding seen in cells or lysates may run through a third protein. Some entries that bind do so weakly or less than the wild type. For some of these results: Tags and fused reporters may be left off the sequences shown.

With “GAD-PP1α (PP1 catalytic subunit) (from UniProt P62136 1-330) (enzyme)”, the binding result in [1] was “no binding”; in experiment [2], “binds”; in [3] it was “binds”; in [4], “binds”; in experiment [5], “binds”.

As for GAD-14-3-3ε (from UniProt P62258 1-255), the binding result in [1] is recorded as “binds”; in [2], “binds”; in experiment [3], “no binding”; in experiment [4] it was “binds”; in experiment [5], “binds”.

Take “endogenous PP1c catalytic subunit (from UniProt P62136 1-330) (enzyme)”: the binding entry in experiment [6] is on record as “binds”; in experiment [7], “no binding”; in experiment [8] it was “binds”; in experiment [9] it was “binds”; in [10] it was “binds”; in experiment [11] it was “binds”.

With “endogenous 14-3-3ε protein (from UniProt P62258 1-255)”, the binding result is given as “binds” in [6]; “binds” in experiment [7]; “binds” in experiment [8]; “no binding” in [9]; “binds” in experiment [10]; “binds” in experiment [11].

B1: GAD-laforin (enzyme, UniProt O95278 1-331)
chain: MRFRFGVVVPPAVAGARPELLVVGSRPELGRWEPRGAVRLRPAGTAAGDGALALQEPGLWLGEVELAAEEAAQDGAEPGRVDTFWYKFLKREPGGELSWEGNGPHHDRCCTYNENNLVDGVYCLPIGHWIEATGHTNEMKHTTDFYFNIAGHQAMHYSRILPNIWLGSCPRQVEHVTIKLKHELGITAVMNFQTEWDIVQNSSGCNRYPEPMTPDTMIKLYREEGLAYIWMPTPDMSTEGRVQMLPQAVCLLHALLEKGHIVYVHCNAGVGRSTAAVCGWLQYVMGWNLRKVQYFLMAKRPAVYIDEEALARAQEDFFQKFGKVRSSVCSL
Turning to B1, the binding entry in experiment [1] was “binds”; in [2] it was “binds”; in [3] it was “binds”; in experiment [12] it was “no binding”; in experiment [4] it was “binds”; in [5] it was “binds”.
